From PMC4336329 (PLoS ONE, 2015)
Hit rate of the full screen: of about 310,000 compounds, about 2,200 (0.71%) showed an effect of 50% or more. Effects have a minus sign here. This is one part of the list.

Each compound was assayed against human ether-à-go-go-related gene (hERG) potassium channel (human, UniProt Q12809) (assay: primary screen, population patch clamp on CHO cells stably expressing hERG).
Chain of human ether-à-go-go-related gene (hERG) potassium channel (Q12809 whole entry, looked up): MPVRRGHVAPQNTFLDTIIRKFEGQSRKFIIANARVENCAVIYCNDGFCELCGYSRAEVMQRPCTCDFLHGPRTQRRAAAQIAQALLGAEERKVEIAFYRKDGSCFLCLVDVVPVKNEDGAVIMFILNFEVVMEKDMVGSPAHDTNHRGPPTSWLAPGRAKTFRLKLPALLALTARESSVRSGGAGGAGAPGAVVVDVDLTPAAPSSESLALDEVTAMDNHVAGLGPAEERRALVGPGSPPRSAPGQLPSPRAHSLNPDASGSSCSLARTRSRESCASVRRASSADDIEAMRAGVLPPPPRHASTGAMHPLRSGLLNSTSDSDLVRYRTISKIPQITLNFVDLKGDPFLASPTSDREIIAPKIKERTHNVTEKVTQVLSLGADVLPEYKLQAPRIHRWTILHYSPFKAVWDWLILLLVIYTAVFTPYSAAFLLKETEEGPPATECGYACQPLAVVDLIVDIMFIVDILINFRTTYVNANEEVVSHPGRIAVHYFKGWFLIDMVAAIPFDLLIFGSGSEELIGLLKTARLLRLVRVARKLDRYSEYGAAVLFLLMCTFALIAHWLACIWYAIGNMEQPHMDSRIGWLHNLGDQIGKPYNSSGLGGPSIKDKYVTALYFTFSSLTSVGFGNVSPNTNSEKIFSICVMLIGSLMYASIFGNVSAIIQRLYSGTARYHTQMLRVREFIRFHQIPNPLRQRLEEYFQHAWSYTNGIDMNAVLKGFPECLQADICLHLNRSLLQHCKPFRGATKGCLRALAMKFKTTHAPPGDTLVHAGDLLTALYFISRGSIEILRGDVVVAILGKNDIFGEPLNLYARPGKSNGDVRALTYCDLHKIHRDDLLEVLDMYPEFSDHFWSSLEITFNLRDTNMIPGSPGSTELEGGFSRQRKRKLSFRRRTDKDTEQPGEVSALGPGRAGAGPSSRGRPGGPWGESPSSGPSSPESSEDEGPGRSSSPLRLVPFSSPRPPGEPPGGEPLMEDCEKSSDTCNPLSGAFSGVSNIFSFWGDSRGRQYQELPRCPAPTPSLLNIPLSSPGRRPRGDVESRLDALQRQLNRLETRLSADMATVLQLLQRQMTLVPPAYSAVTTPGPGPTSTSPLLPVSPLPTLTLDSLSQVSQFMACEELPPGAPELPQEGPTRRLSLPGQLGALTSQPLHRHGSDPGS

Row | Compound | hERG current change (%, negative = inhibition) at 1uM [%]
1 | COc1ccccc1CCN1CCCC(CN(C)C(=O)CCC(=O)N(C)C)C1 (stereo not shown) | 12.2
2 | O=C1NC2(CCc3ccccc3C2)C(=O)N1CCOc1cccc(Cl)c1 (stereo not shown) | -8.69
3 | O=S(=O)(Nc1ccc(O)c(Sc2nc3ccccc3s2)c1)c1cccc2ccccc12 | 11.1
4 | Cn1c(=NC(=O)c2ccc(S(=O)(=O)N3CCCc4ccccc43)cc2)sc2cc(S(C)(=O)=O)ccc21 | 9.4
5 | O=Cc1[nH]c2ccccc2c1N(C(=O)CCl)c1ccc([N+](=O)[O-])cc1 | -3.08
6 | O=C(Cc1cccc2ccccc12)NCCOc1ccccc1F | 9.72
7 | CCOc1ccc(NC(=O)c2ccc(NC(=O)COC(=O)c3ccc(NC(=O)CC#N)cc3)cc2)cc1 | 8.33
8 | CCCCN(CC)C(=O)Cn1cnc2sc(C)c(S(=O)(=O)N3CCC(C)CC3)c2c1=O | -4.14
9 | COc1ccccc1N1CCN(Cc2nc(N)nc(Nc3ccc(C)cc3)n2)CC1 | -30.8
10 | O=C(NCc1cccnc1)c1ccc(Cl)c(S(=O)(=O)N2CCCCCC2)c1 | -2.91
11 | N#Cc1c(Nc2ccc(F)cc2)sc(C(=O)c2ccc(F)cc2)c1N | 2.63
12 | Cc1ccc(-c2nnn(CC(=O)N(CCN3CCOCC3)C(C(=O)NC(C)(C)C)c3ccc(C)o3)n2)cc1 (stereo not shown) | 8.86
13 | Cc1cc(OC(=O)c2ccccc2C)c([N+](=O)[O-])c(=O)[nH]1 | 14.4
14 | Cc1nc2ccccc2nc1CSc1nncs1 | 8.25
15 | Cc1ccccc1CN1CCNCC1.Cl | 13.1
16 | COc1ccc2nc(NC(=O)Nc3cccc4ccccc34)sc2c1 | 7.55
17 | COc1ccc(S(=O)(=O)N2CCOCC2)cc1NC(=O)CCc1cc(OC)c(OC)c(OC)c1 | 2.32
18 | c1ccc2c(c1)CCCN2c1nc(N2CCOCC2)nc(N2CCOCC2)n1 | 14.5
19 | Cc1cc(OCc2cccc(S(=O)(=O)N3CCOCC3)c2)ccc1Cl | 4.05
20 | Cc1ccccc1CN1C[C@@H]2C[C@@H](c3cn[nH]c3-c3ccccc3)N3CCC[C@@]23C1=O | 11.2
21 | CCNC(=S)N(Cc1ccco1)Cc1cc2cc(OCC)ccc2[nH]c1=O | 5.19

Row | Compound | hERG current change (%, negative = inhibition) at 1uM [%]
22 | COCCNC(=O)CSc1nc2cc(OC)c(OC)cc2c(=O)n1Cc1ccc(OC)cc1 | 2.15
23 | Cc1ccc(SCC(=O)Nc2ccc(F)cc2[N+](=O)[O-])cc1C | 10.8
24 | Cc1cccc(OCC(=O)N2CCCc3ccccc32)c1 | 6.48
25 | CN(CC(=O)Nc1cccc(F)c1)C(=O)c1cc([N+](=O)[O-])ccc1N1CCOCC1 | 8.64
26 | O=S(=O)(c1cccs1)N1CCN(c2ccccc2)CC1 | 13.3
27 | CC(Sc1ncc(C(F)(F)F)cc1Cl)C(=O)NC(N)=O (stereo not shown) | 1.35
28 | CCc1cccc(CC)c1NC(=O)C1SC(=Nc2ccccc2C)C(c2nc3ccccc3s2)=C1N (stereo not shown) | 20.2
29 | O=C(c1cnn2cccnc12)N1CCN(c2ccccc2)CC1 | 19.5
30 | CCOC(=O)C1(Cc2cccc(OC)c2)CCN(Cc2ccccc2)CC1 | -7.08
31 | COc1ccc(CNC(=O)CC2(CC(=O)O)CCCCC2)cc1 | 14.9
32 | COc1ccc(Br)cc1C(=O)N/N=C/c1cccnc1 | 6.48
33 | CCCCOc1ccc(CSC(=N)N)cc1[N+](=O)[O-].Cl | -26.4
34 | Cc1nn(CC(=O)Nc2ccccc2)c(=O)c2ccccc12 | 7.11
35 | C=CCNC(=O)/C=C/c1c(F)cccc1Cl | 4.39
36 | CC(=O)N1CCOc2ccc(S(=O)(=O)Nc3cccc(C)n3)cc21 | 11.7
37 | CC(NC(=O)c1ccc2ccccc2n1)c1ccc(Br)cc1 (stereo not shown) | 17.3
38 | COc1ccc(CCNC(=O)C(=O)NCC2OCCN2S(=O)(=O)c2ccc3c(c2)OCCO3)cc1OC (stereo not shown) | 15
39 | Cc1ccc(-n2nnnc2Sc2nc([N+](=O)[O-])nn2C)cc1C | 10.3
40 | O=C(CN(Cc1ccccc1)S(=O)(=O)c1ccc(S(=O)(=O)N2CCOCC2)cc1)Nc1ccccc1 | -10.3
41 | CCCn1c2ccccc2c2cnn(CC(=O)NCCCN3CCN(c4ccccc4)CC3)c(=O)c21 | -1.53
42 | O=C(NC1CSC/C1=N\O)c1ccccc1 (stereo not shown) | 11.3

Row | Compound | hERG current change (%, negative = inhibition) at 1uM [%]
43 | COc1ccc(OC)c(S(=O)(=O)N2CCN(CC(O)CN3CCOCC3)CC2)c1 (stereo not shown) | 14.9
44 | COc1ccc(C(=O)NCCNc2nc3ccc(C)cc3cc2C#N)cc1 | 11.9
45 | C=CCn1c(CCC(=O)Nc2ccc(C)c(Cl)c2)nnc1SCC(=O)Nc1ccccc1C | 12.2
46 | Cc1nn(Cc2ccccc2)c2c1C(c1ccccc1)C(C#N)=C(N)O2 (stereo not shown) | 12.5
47 | O=C(COc1cccnc1[N+](=O)[O-])NCCc1ccccc1 | 10.3
48 | COc1ccc(OC)c(-n2c(SCC(=O)N3CCc4ccccc43)nc3c(c2=O)SCC3)c1 | 5.9
49 | Cc1ccccc1Cn1nc(C)c(NC(=O)c2noc3c2CCCC3)c1C | 8.66
50 | COC(=O)c1ccccc1Sc1c(/C=N/OC(=O)c2ccccc2)c(C(F)(F)F)nn1C | 9.75
51 | CCOc1ccc(Cl)cc1S(=O)(=O)n1nnc2ccccc21 | 10.5
52 | CCOc1ccc(C2(C)NC(=O)N(CCN(C)C)C2=O)cc1 (stereo not shown) | 15.1
53 | Cc1cccc(Nc2nnc(SCC(=O)NC(=O)Nc3ccc4c(c3)OCCO4)s2)c1 | -13.9
54 | COc1ccc(C(=O)OCc2nc(N)nc(Nc3ccccc3C)n2)cc1OC | 16.2
55 | Cc1ccc(NC(=O)COC(=O)Cn2c(C)csc2=O)cc1C | 5.34
56 | CCN(CC(=O)Nc1c(F)cccc1F)C(=O)c1ccc(-n2cncn2)c([N+](=O)[O-])c1 | 12.9
57 | C1CCC(c2nn3c(-c4n[nH]c5c4CCC5)nnc3s2)CC1 | 3.03
58 | O=C(NCc1ccco1)c1ccccc1NC(=O)C1CC(=O)N(c2ccc(Cl)cc2)C1 (stereo not shown) | -21.6
59 | COc1ccccc1N(C)S(=O)(=O)c1ccc(C(=O)NCCc2ccc(F)cc2)cc1 | 10.1
60 | CC(O)[C@H]1CC[C@H]2[C@@H]3CC[C@H]4C[C@@H](O)CC[C@]4(C)[C@H]3/C(=N/O)C[C@]12C (stereo partly shown) | 12.3
61 | C=CCn1c(C)cc(C(=O)COc2ccc(S(=O)(=O)N3CCCC3)cc2[N+](=O)[O-])c1C | 10.1
62 | CCOC(=O)[C@H]1[C@H]2COc3ccc(C)cc3[C@@H]2N2C(=O)c3cc(F)c(F)cc3NC(=O)[C@@]12C | 11.1
63 | CCOc1ccc(NC(=O)CN(C)C(=O)c2cccnc2Sc2ccc(Cl)cc2)cc1OCC | -5.81

Row | Compound | hERG current change (%, negative = inhibition) at 1uM [%]
64 | Cc1noc(C)c1COC(=O)CN(C)S(=O)(=O)c1ccc(Cl)cc1 | 10.9
65 | CCOc1ccc(C(CCc2ccccc2)NC(=O)c2ccc(OC)c(OC)c2)cc1OCC (stereo not shown) | 8.29
66 | Cc1ccc(S(=O)(=O)N(C)C)cc1N | 7.47
67 | CCN(CC)S(=O)(=O)c1ccc2oc(Nc3ccccc3)nc2c1 | 14
68 | COC(=O)c1ccc(C(NC(=O)OCc2ccccc2)/C(F)=C/[C@@H](C)C(=O)NCc2ccc(OC)c(OC)c2)cc1 (stereo partly shown) | 12.3
69 | CCOC(=O)C1=C(O)/C(=C/c2ccc(OCC(=O)O)c(OCC)c2)SC1=Nc1ccc(OC)cc1 | 18.5
70 | Cc1ccccc1Nc1nc(N2CCOCC2)nc(N2CCOCC2)n1.Cl | 48.2
71 | COc1ccc(-c2nc(NC(=O)C3CC(=O)N(Cc4ccco4)C3)sc2C)cc1 (stereo not shown) | 5.21
72 | CC(=O)NNS(=O)(=O)c1scc(S(=O)(=O)c2ccc(Cl)cc2)c1C | 12.1
73 | CCOc1ccc(NC(=O)N2CCC(n3nnc4ccccc43)CC2)cc1 | 0.631
74 | C[C@@H]1CCC(=O)N(C[C@@H](C)CSc2ccc(Br)cc2)CC1 | 10.6
75 | CCOc1ncccc1C(=O)N1CCN(c2ccc(C(F)(F)F)cn2)CC1 | 1.54
76 | O=C(c1ccc2c(c1)OCCO2)N1CCCC(CNS(=O)(=O)c2cccs2)C1 (stereo not shown) | 4.47
77 | O=C(N/N=C/C(Br)=C/c1ccccc1)c1cccs1 | 8.41
78 | COc1ccc(S(=O)(=O)N(CC(=O)N/N=C/c2cccs2)c2ccc(C)cc2)cc1OC | 6.58
79 | O=C(CN1CCN(S(=O)(=O)c2ccc(Cl)s2)CC1)N1CCCCC1 | -0.262
80 | Cc1ccc(C2=[N+]([O-])C3(CCCCC/C3=N\NC(N)=S)N(O)C2(C)C)o1 (stereo not shown) | 13.8
81 | Cc1cc(Nc2ccc(C(C)C)cc2)n2ncnc2n1 | -17.3
82 | COc1ccc(C2(CNC(=O)c3ccc(C)cc3)CCOCC2)cc1 | 3.36
